Measured values published in the BET-seq Pho4 binding data (Le et al. 2018).
The list shows a part of the results. Values were computed here from the reads of four pooled replicates and scatter widely.

target: T1, Pho4 (S. cerevisiae) (UniProt P07270); experiment: relative binding free energy (BET-seq); higher = weaker binding; conditions: reference: library average
T1 sequence: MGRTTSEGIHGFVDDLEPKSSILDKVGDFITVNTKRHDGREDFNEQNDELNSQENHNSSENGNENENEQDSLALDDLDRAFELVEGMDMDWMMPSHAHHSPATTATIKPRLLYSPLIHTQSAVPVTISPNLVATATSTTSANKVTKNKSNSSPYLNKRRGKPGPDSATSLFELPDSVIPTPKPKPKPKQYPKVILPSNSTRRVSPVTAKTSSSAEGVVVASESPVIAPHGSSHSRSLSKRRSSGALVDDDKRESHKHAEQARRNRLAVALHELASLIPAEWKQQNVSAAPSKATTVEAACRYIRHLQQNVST

Sequence | relative binding free energy [kcal/mol]
TGTAGCACGTGCGGGT | -0.18
TTGTGCACGTGTGGAG | 0.07
ATACACACGTGTGTTT | 0.07
GAAGTCACGTGGGCTT | 0.05
GTTATCACGTGTTAAT | 0.2
GGGATCACGTGGGTAA | 0.02
AATGTCACGTGGTGCA | -0.14
CAGGACACGTGCGTTT | 0.3
TAGGTCACGTGGGAAA | 0.07
GTGTGCACGTGGATTA | 0.06
CTGTTCACGTGTGGGC | 0.29
TCGAGCACGTGTGTTG | 0.06
GCGGTCACGTGGTATT | 0.18
TTAAGCACGTGGGGTT | -0.14
GTGAACACGTGATGTA | 0.04
GTGGACACGTGTGCGC | -0.01
TGGGCCACGTGTGTCA | -0.06
AGTGGCACGTGATGGC | 0
TAGAGCACGTGTGCGA | -0.12
TGCTTCACGTGTATGA | 0.15
GTCGACACGTGGTGAT | 0.07
GTGTTCACGTGTGCAT | 0.2
CTTGTCACGTGGGGGA | -0.08

Sequence | relative binding free energy [kcal/mol]
AGGACCACGTGGGAGG | -0.22
TTAGGCACGTGTACGA | -0.05
CGTTGCACGTGTGGGT | 0.1
GGCGTCACGTGCTTTG | 0.16
CGGGGCACGTGCGCTG | -0.32
ATACGCACGTGATGGG | -0.05
GTAGTCACGTGTCAGG | 0.25
GAAGTCACGTGAGGGG | 0.33
CGCGTCACGTGGTGTT | 0.01
ACGGGCACGTGCAGGG | -0.21
TCGGCCACGTGGGTGA | -0.2
AGGGTCACGTGAATGC | 0.3
TCTAGCACGTGGTGTT | -0.18
GGGAACACGTGTTGAT | 0.29
GTAATCACGTGAGATG | 0.52
CGGATCACGTGTCTGG | 0.31
GAGAACACGTGGGGGA | -0.05
ATGTTCACGTGGAGAA | 0.24
TTGTGCACGTGTAACA | 0.16
TTCTTCACGTGAGGGG | 0.45
AAGTGCACGTGAAGTT | 0.22
TTCTGCACGTGTATAG | 0.01
GTGGGCACGTGACGGC | 0.25

Sequence | relative binding free energy [kcal/mol]
AAATTCACGTGTAATT | 0.42
AACGGCACGTGGTAGT | -0.2
AGAGCCACGTGGGTTG | -0.26
GGTTTCACGTGTGGTA | 0.34
GGCGCCACGTGTGTTG | -0.11
AAGTCCACGTGTGAGT | 0.26
GAATTCACGTGCGTTA | 0.31
GATGACACGTGCCGGG | 0.14
TCGGTCACGTGTTGCG | 0
GTAGTCACGTGGAGAG | 0.27
GCATGCACGTGTTGGT | -0.02
CTTGTCACGTGAGGGT | 0.32
TTAGTCACGTGGGCCG | -0.05
TCGATCACGTGGATTT | 0.37
GTTGACACGTGGTTCG | 0.04
ATAAACACGTGGTTGG | -0.09
GTGACCACGTGTAGGT | -0.08
GGACGCACGTGGGTCA | -0.09
TGCTTCACGTGGTATT | 0.21
GTGGACACGTGTAGTG | 0.04
TGAATCACGTGCCGTG | 0.2
AAGTTCACGTGTTTAT | 0.13
TTCATCACGTGGGTAG | 0.1

Sequence | relative binding free energy [kcal/mol]
TGGACCACGTGTGTGG | 0.07
TTTAGCACGTGTGAGG | 0.12
TCAGGCACGTGTTGCT | -0.01
TACTTCACGTGTTTAT | 0.24
GGGGCCACGTGGAGTT | 0.07
GTCGGCACGTGAGGAT | 0.22
GAGATCACGTGTAGTA | 0.19
GTAATCACGTGGGTAA | 0.05
TAGTTCACGTGTAGTA | 0.3
ATTAACACGTGGGAGG | -0.13
TTGGGCACGTGTTTTG | -0.04
AAGGGCACGTGAGGGG | 0.06
TATGGCACGTGTAAGG | 0
TGTTTCACGTGCGAAT | 0.19
AGTGACACGTGGTGAT | -0.14
TGTGCCACGTGAAATT | 0.39
TAATTCACGTGTTCTG | 0.2
AGGTTCACGTGTATGC | 0.28
TTAGACACGTGTCTGG | 0.04
TTTTGCACGTGGGACC | -0.03
ATTTACACGTGAAGAT | 0.22
TAGATCACGTGGGCGT | 0
TGGTTCACGTGGGTTC | 0.17

Sequence | relative binding free energy [kcal/mol]
TTGTGCACGTGTCATG | 0.07
TGGGTCACGTGACTTA | 0.08
ATGAGCACGTGGGCGC | -0.15
TTTTTCACGTGTCGGG | 0.31
GGCGCCACGTGGGGCA | -0.18
GATGGCACGTGATCGT | -0.01
CATTTCACGTGAGCGG | 0.49
TATGGCACGTGCGGTT | -0.16
ACAGGCACGTGGTAGG | -0.4
CATGTCACGTGGGCAG | -0.08
TGAGGCACGTGAGTTG | 0.08
GTACACACGTGTTGTG | 0.12
GATTGCACGTGGTCGT | -0.09
TAGGTCACGTGGGCCG | 0.01
TGGGGCACGTGAGACG | -0.05
ATGGGCACGTGGTACA | -0.25
TAGTTCACGTGTGATT | 0.29
TCAGTCACGTGAAGTT | 0.49
GTTCGCACGTGGTGTG | -0.09
GGTATCACGTGCTTGA | 0.12
CTTTTCACGTGTAGTT | 0.25
ATCGTCACGTGGAAGG | 0.05
GTATGCACGTGTAAAA | 0.19
